Patent US20180043012A1

Key:
[1] = target: T1, recombinant human CLEC10A, extracellular domain (R&D Systems) (human) (UniProt Q8IUN9); assay: SPR, CLEC10A immobilized on CM3 chip, steady state affinity fit at report point 20 s after end of injection
T1 sequence (looked up): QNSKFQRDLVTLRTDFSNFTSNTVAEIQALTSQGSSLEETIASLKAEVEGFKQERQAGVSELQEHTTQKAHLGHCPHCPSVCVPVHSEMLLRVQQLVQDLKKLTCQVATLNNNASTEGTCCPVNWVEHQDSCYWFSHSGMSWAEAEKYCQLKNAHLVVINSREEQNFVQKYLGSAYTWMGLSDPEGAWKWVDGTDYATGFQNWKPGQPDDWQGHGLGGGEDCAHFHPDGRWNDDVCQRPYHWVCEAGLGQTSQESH

[2] = target: mouse MGL2 (CLEC10A orthologous mouse receptor protein) (mouse); assay: SPR, MGL2 immobilized on CM3 chip, steady state affinity fit at report point 20 s after end of injection
[3] = target: mouse MGL2 (CLEC10A orthologous mouse receptor protein) (mouse); assay: SPR, MGL2 immobilized on CM3 chip, fit of the dissociation phase alone
[4] = target: T2, mouse MGL1 (CLEC10A orthologous mouse receptor protein) (mouse) (UniProt P49300); assay: SPR, MGL1 immobilized on CM3 chip, steady state affinity fit at report point 20 s after end of injection
T2 sequence (looked up): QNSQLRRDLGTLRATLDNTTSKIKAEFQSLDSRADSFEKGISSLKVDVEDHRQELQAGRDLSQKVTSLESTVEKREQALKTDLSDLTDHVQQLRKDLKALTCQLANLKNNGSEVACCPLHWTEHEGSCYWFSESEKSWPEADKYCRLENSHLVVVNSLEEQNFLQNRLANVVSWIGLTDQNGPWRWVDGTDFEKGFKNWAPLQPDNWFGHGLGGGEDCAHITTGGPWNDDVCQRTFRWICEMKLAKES

- R50% (affinity constant) [1]: 1.47 µM
- R50% (affinity constant) [2]: 3 µM
- koff [3]: 0.000381 s⁻¹
- R50% (affinity constant) [4]: 3.43 µM
Substance: purified monomeric human VWF (von Willebrand factor) (a stretch of the chain, sequence not shown) (ligand)
